Experimental data from PubChem BioAssay AID360 (National Center for Advancing Translational Sciences (NCATS), 2006).
The whole screen tested about 48,000 compounds, of which about 550 (1.1%) were called active. Roughly 4% stayed inconclusive and do not appear here. No stated cut-off is given here; in the data, active means potency below about 15 µM; inconclusive means mostly about 16 µM to 33 µM; inactive means weaker than that. The list shows a part of the results.

Target: Lysosomal acid glucosylceramidase (Homo sapiens) (UniProt P04062)
Experiment: Glucocerebrosidase;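 further: the screen sought inhibitors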
Details: purified enzyme, resorufin glucoside fluorescence (screen aimed at inhibitors), 20 min
Summary of the method: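 Compounds titrated against 0.2 nM normal enzyme, 30 uM resorufin beta-D-glucopyranoside substrate, citrate/phosphate buffer with taurocholate and tween-20, pH 5.9. Reaction ran 20 min at room temperature; fluorescence (Ex 548/Em 600) gave AC50.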
Potency means the concentration at half of the fitted maximal effect.

UniProt P04062, sequence (P04062 whole entry, looked up): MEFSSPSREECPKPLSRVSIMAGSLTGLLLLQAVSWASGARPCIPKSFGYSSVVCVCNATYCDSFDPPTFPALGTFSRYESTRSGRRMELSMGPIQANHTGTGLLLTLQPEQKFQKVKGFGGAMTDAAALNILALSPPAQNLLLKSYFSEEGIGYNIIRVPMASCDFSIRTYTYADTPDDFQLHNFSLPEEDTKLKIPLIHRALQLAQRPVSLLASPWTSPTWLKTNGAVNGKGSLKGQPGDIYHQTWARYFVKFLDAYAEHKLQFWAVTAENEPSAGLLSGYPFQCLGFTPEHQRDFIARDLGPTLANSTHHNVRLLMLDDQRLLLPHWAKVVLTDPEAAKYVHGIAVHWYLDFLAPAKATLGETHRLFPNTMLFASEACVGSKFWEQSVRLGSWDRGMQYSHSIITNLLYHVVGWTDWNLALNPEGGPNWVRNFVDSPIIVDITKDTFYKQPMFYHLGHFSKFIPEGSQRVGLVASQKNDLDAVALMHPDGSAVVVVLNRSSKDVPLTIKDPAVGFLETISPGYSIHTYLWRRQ

Potency, inactive:
CCOCCCNS(=O)(=O)c1ccc2c(c1)CCN2C(C)=O > 76.9 µM, Cn1c(SC2C(=O)CC(C)(C)CC2=O)nnc1-c1ccco1 > 76.9 µM, O=C(c1ccc(Br)o1)N1CCN(c2ccc(F)cc2)CC1 > 76.9 µM, COc1ccc(C)c2sc(N3CCCC3)nc12 > 76.9 µM, CC(=O)OCCn1c(Br)nc2c1c(=O)[nH]c(=O)n2C > 76.9 µM, CCCCCCn1c(N2CCC(C)CC2)nc2c1c(=O)[nH]c(=O)n2C > 76.9 µM, CCCCn1c(C(C)O)nc2ccccc21 (stereo not given) > 76.9 µM, Cc1cc(C)n(C(=O)CNC(=O)COc2ccccc2)n1 > 76.9 µM, CC1(C)NC(=O)N(CCCOc2ccc(Br)cc2Cl)C1=O > 76.9 µM, CC(C)N1C(=O)C2C(C(=O)NC3CCCCC3)C3C=CC2(O3)C1C(=O)NC1CCCC1 (stereo not given) > 76.9 µM, c1csc(-c2nn3c(C4COc5ccccc5O4)nnc3s2)c1 (stereo not given), O=C(c1cccc(COc2ccc(Cl)cc2Cl)c1)N1CCN(c2ccccn2)CC1, COc1ccc(-c2nc(-c3ccncc3)no2)cc1OC > 76.9 µM, Cc1cc(C(F)F)n2nc(C(=O)O)nc2n1 > 76.9 µM, COCCSc1nnc(NC(=O)C2CCCO2)s1 (stereo not given) > 76.9 µM, Cn1cccc1Cc1nnc(SCC(=O)NCC2CCCO2)n1CCc1ccccc1 (stereo not given) > 76.9 µM, Cc1[nH]cnc1CSCCN > 76.9 µM, COc1cccc(-c2cc(C(F)(F)F)n3nc(N)nc3n2)c1 > 76.9 µM, O=C(NCCN1CCN(c2ccccc2F)CC1)C1CC(=O)N(C2CCCC2)C1 (stereo not given) > 76.9 µM, CCOc1ccc(C(=O)N(Cc2ccc(N(C)C)cc2)C2CCS(=O)(=O)C2)cc1 (stereo not given) > 76.9 µM, CS(=O)(=O)N1CCC(NC(=O)Cc2ccccc2)CC1 > 76.9 µM, O=C(CSc1nnc(COc2ccccc2)o1)N1CCN(c2ccccc2)CC1 > 76.9 µM, O=C(CCn1nc(-c2ccccc2)ccc1=O)N1CCCC1 > 76.9 µM, O/N=C(/CN(O)/C=C1/C=CC=N1)c1cccs1 > 76.9 µM, O=C(CP(=O)(CO)CO)c1ccc(Cl)cc1 > 76.9 µM, CCC(C)C(=O)Nc1c2c(nc3c1CCC3)CCCC2 (stereo not given) > 76.9 µM, CCCc1cc(=O)[nH]c(SC(CC)C(=O)Nc2ccccc2C#N)n1 (stereo not given) > 76.9 µM, COc1ccc(CC(=O)Nc2ccc(N3CCN(c4ccc(OC)cc4)CC3)c(C#N)c2)cc1 > 76.9 µM, Cc1c(C)c2cc3c4c(oc3c(C)c2oc1=O)CCCC4 > 76.9 µM, CCOC(=O)N1CCN(C(=O)C2CCCN(c3ncnc4c3sc3cccc(F)c34)C2)CC1 (stereo not given) > 76.9 µM, COc1ccc(N(C(=O)c2cccc(OC)c2OC)C2C=CS(=O)(=O)C2)c(OC)c1 (stereo not given) > 76.9 µM, CCCCn1nnc(NC(=O)CC23CC4CC(CC(C4)C2)C3)n1 > 76.9 µM, Cc1ccc(S(=O)(=O)N2CCN(S(C)(=O)=O)C2)cc1 > 76.9 µM, CCOC(=O)/C=C1\SCC(=O)N1Cc1ccc(Br)cc1 > 76.9 µM, COc1cccc(-n2c(SCC(=O)N3CCOCC3)nc3c([nH]c4ccccc43)c2=O)c1 > 76.9 µM, CN(CC(=O)Nn1cnnc1)S(=O)(=O)c1cc(Cl)ccc1Cl > 76.9 µM, CC(NC(=O)c1cccs1)C(=O)NC1=NCCS1 (stereo not given) > 76.9 µM, COc1cccc(NC(=O)CN2CCN(c3ccc(F)cc3)CC2)c1 > 76.9 µM, CCCCn1c(Cc2ccccc2)n[nH]c1=S > 76.9 µM, CCOc1nc(-c2ccc(C)cc2)ccc1-c1noc(COC)n1 > 76.9 µM, COc1ccc(NC(=O)CC(Cc2ccccc2)C(=O)O)cc1 (stereo not given) > 76.9 µM, CC(=O)N1CCN(S(=O)(=O)c2ccc(S(=O)(=O)NCC(C)C)cc2)CC1 > 76.9 µM, CCOC(=O)C1=C(C)N=C2SCCC(=O)N2C1c1cccs1 (stereo not given) > 76.9 µM, O=C1NC(c2cc3c(cc2Cl)OCO3)Oc2ccccc21 (stereo not given) > 76.9 µM, CCCCCCNC(=O)C(C#N)c1nc2ccccc2nc1N1CCCC1 (stereo not given) > 76.9 µM, COc1ccc(-n2c(=O)[nH]cc(C(=O)Nc3ccc4c(c3)OCCO4)c2=O)cc1 > 76.9 µM, CCOC(=O)C(NC(C)=O)(Nc1ccc(S(=O)(=O)Nc2onc(C)c2C)cc1)C(F)(F)F (stereo not given) > 76.9 µM, CCc1ccc(CCC(=O)Nc2nccs2)o1 > 76.9 µM, O=C(CSc1nnc(-c2cccnc2)n1Cc1ccco1)NCc1ccc2c(c1)OCO2 > 76.9 µM, CS(=O)(=O)N(CC(=O)NCc1ccco1)Cc1ccc(Cl)cc1 > 76.9 µM, CC(=O)N1CCc2cc(S(=O)(=O)N3CCOCC3)ccc21 > 76.9 µM, COCCCNC(=O)CSc1nc2ccccc2c(=O)n1CCCC(=O)NCC1CCCO1 (stereo not given) > 76.9 µM, CCCN1C(=O)c2ccc(C(=O)Nc3nccs3)cc2C1=O > 76.9 µM, N#Cc1ccc(CSc2nnc(-c3cnccn3)o2)cc1 > 76.9 µM, COCCN1CN(S(=O)(=O)c2ccccc2)c2nc3ccccc3nc21 > 76.9 µM, NC(=O)C1CCCN(S(=O)(=O)c2ccc(Br)cc2)C1 (stereo not given) > 76.9 µM, CCOC(=O)C1CCN(Cc2c(O)ccc3ccccc23)CC1 > 76.9 µM, c1ccc(-n2cnnc2SCc2nc3ccccc3s2)cc1 > 76.9 µM, COc1ccc(S(=O)(=O)Nc2nnc(C(C)C)s2)cc1 > 76.9 µM, O=C(Cc1c(C(=O)O)[nH]c2ccccc12)NCCN1CCN(c2cccc(Cl)c2)CC1 > 76.9 µM
